Experimental data from paper PMC6919601, “Identification of Plasmodium dipeptidyl aminopeptidase allosteric inhibitors by high throughput screening” (PLoS ONE, 2019).
The campaign covered roughly 110,000 compounds. About 230 (0.21%) showed an effect of 50% or more. This is one part of the list.

biological target: DPAP1 (Plasmodium falciparum, UniProt Q8IIJ9); assay: primary screen, percent inhibition; read by cleavage of a fluorogenic dipeptide substrate; higher = more effect of the substance; parameters: species or system P. falciparum D10 trophozoite lysates; single well
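Further: 30 min substrate incubation versus DMSO and 10 µM JCP410 controls.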

Sequence of DPAP1 (Q8IIJ9 whole entry, looked up): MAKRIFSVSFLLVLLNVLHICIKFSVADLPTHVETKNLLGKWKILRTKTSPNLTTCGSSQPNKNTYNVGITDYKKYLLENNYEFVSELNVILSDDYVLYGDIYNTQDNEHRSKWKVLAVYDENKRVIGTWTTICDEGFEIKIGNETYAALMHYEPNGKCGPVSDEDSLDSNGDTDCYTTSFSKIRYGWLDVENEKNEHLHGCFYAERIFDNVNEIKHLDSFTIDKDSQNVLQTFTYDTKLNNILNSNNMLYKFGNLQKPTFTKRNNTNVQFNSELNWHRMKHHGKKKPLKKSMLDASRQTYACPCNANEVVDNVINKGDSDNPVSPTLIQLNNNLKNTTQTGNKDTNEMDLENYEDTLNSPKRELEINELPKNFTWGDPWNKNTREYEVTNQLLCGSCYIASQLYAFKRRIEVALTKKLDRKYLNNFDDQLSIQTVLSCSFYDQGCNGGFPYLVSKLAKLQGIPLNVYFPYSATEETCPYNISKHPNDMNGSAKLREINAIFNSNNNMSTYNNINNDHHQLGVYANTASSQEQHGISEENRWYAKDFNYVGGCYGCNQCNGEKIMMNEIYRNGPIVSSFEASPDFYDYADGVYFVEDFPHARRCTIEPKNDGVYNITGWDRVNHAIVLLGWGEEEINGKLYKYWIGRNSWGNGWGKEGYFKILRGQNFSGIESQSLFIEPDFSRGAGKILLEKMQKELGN

Structure (SMILES)	% Inhibition @ 10 uM
CCCN1CCN(C(=O)c2sc3nc(C)cc(C)c3c2-n2cccc2)CC1	-1.08%
CN(C)CCC(O)(c1ccccc1)c1cccnc1 (stereo not shown)	1.54%
Cc1ccc(-c2cn3nc(N4CCC(C(=O)N5CCN(C)CC5)CC4)sc3n2)cc1	3.12%
Cc1nnc2n1NC(c1ccc(Cl)cc1)C(C(=O)NCC1CCCO1)S2 (stereo not shown)	-13.6%
COc1ccc(C(=O)Nc2ccc(Br)c(Cl)c2)cc1	-1.28%
CCN(CC)C1=N/C(=C\c2ccco2)C(=O)N1c1ccccc1	-2.8%
C=C(C)CNC(=S)NCc1ccccc1	-3.44%
O=S1(=O)N=C(N2CCOCC2)c2ccccc21	-0.591%
CNC(=O)Cn1cc(S(=O)(=O)Cc2cccc(Cl)c2)c2ccccc21	2.25%
COc1ccccc1N1CCN(C2CC(=O)N(c3cccc(C)c3)C2=O)CC1 (stereo not shown)	-6.05%
Cc1ccc(-c2nnn3c2nc(NC(C)C)c2ccccc23)cc1	-10.4%
COc1ccccc1-c1oc2ccc(C)cc2c(=O)c1O	0.0539%
COc1ccc2c(c1)CC/C(=C\c1ccc(OC)c(Cn3nc(C)cc3C)c1)C2=O	8.24%
COCCCn1c(SCC(=O)NCCC2=CCCCC2)nc2c(sc3ccccc32)c1=O	7.26%
CCN(Cc1ccccc1)S(=O)(=O)c1ccc(Cl)cc1	3.47%
CCOCCCNc1ncnc2c1cnn2-c1ccc(C)cc1	1.91%
CCSc1ccc(-c2cccs2)nn1	-0.256%
O=C(NC(c1ccccc1)c1ccccc1)c1cccc(-n2cnnn2)c1	-4.56%
Cc1ccccc1OCC(=O)Nc1nnc(S(=O)(=O)NCc2ccccc2)s1	-1.72%
CCNC(=O)c1ccc(C2SCC(=O)N2CCc2ccccc2)cc1 (stereo not shown)	-1.6%
CC(=O)N1CN(S(=O)(=O)c2ccc(C)cc2)CC1C (stereo not shown)	-5%
Cc1ccnc(NC(=O)c2cccc(S(=O)(=O)N3CCCCCC3)c2)c1	2.94%
CC1CC(=O)C2=C(C1)OC(N)=C(C#N)C2c1ccc(F)cc1 (stereo not shown)	-3.72%
CC(C)CCNC(=O)CCS(=O)(=O)c1cccc2nonc12	1.26%
CC(C)(C)NS(=O)(=O)c1ccc(OCC(=O)Nc2ccc(Br)cc2F)cc1	-1.82%

Structure (SMILES)	% Inhibition @ 10 uM
Cc1cc(N)n(C2CCS(=O)(=O)C2)n1 (stereo not shown)	8.49%
Cc1ccccc1N1C(=O)/C(=C\c2c(C)[nH]c3ccccc23)C(=O)NC1=S	4.15%
Cn1c(=O)c2c(nc(CN3CCC(C(N)=O)CC3)n2CCCc2ccccc2)n(C)c1=O	-1.65%
COCC(C)NC(=O)NC1(C(F)(F)F)Oc2cc(Cl)c(Cl)cc2O1 (stereo not shown)	6.57%
Cc1cc2nc(-c3c(O)nc4ccccc4c3O)[nH]c2cc1C	6.86%
CC1(C)Cc2nc3ccccc3c(N)c2C(O)C1 (stereo not shown)	0.266%
Cc1ccc(/C=C2/SC(=O)N(CC(=O)N3CCOCC3)C2=O)s1	-4.39%
Cc1ccc(S(=O)(=O)NCCCC(=O)O)cc1	-1.29%
O=c1c2c3c(sc2nc2c4ccccc4c(NCC4CCCO4)nn12)CCCC3 (stereo not shown)	41.2%
COc1cc(-c2nc3ccccc3s2)cc(Br)c1O	5.72%
O=C(Cn1ncc2c3ccccc3n(Cc3ccccc3F)c2c1=O)NCC1CCCO1 (stereo not shown)	0.137%
Nc1ccc2nn(-c3cc([N+](=O)[O-])ccc3O)nc2c1	2.13%
CC(=O)NCCSc1nc(-c2cccs2)cc(-c2ccc(F)cc2)c1C#N	5.65%
CC1=C(C(=O)OCc2ccc3c(c2)OCO3)C(c2ccc(Cl)cc2Cl)CC(=O)N1 (stereo not shown)	5.86%
COc1ccc(-c2[nH]nc3c2C(c2ccsc2)C(C#N)=C(N)O3)cc1 (stereo not shown)	14.3%
CCO/C(O)=C1/C(C)=Nc2ncnn2C1c1ccc(OC)c(O)c1 (stereo not shown)	-1.17%
Cc1cc(Nc2ccc3c(c2)OCCO3)c2ccc(Cl)cc2n1	-3.49%
COc1ccc(C(=O)c2cc(C#N)c3c4ccccc4ccn23)cc1OC	-0.413%
CCOC(=O)N1CCC(N2CCN(C/C=C/c3ccccc3)CC2)CC1	-1.81%
CC(C)n1c(Oc2ccccc2Cl)nc2c1c(=O)n(C)c(=O)n2C	4.1%
CCCCc1ccc(NC(=O)c2ccc(OC)c(OC)c2)cc1	-4.68%
COc1ccc2c(CNCCc3ccc(Cl)cc3)c(C(=O)O)n(Cc3ccccc3C)c2c1	-2.86%
CCc1ccc(NS(=O)(=O)c2c(C)cc(C)cc2C)cc1	-2.6%
CCN(CC)CCn1c(NC(=O)C23CC4CC(C2)CC(n2cncn2)(C4)C3)nc2ccccc21	6.68%
COc1ccc(CN2CCN(c3ccccc3C)CC2)cc1C	1.48%

Structure (SMILES)	% Inhibition @ 10 uM
OC(COc1ccc2ccccc2c1)CN1CCN(c2ccccc2)CC1 (stereo not shown)	1.4%
Cn1c(SCc2nc(-c3cccs3)no2)nnc1-c1ccncc1	-4.02%
CCN(CC)CCOc1ccc(Br)cc1	-0.414%
CCc1nc2ccc(C(=O)NC3CCCc4ccccc43)cc2nc1CC (stereo not shown)	1.95%
C=CCOC(=O)c1cccc(-c2ccc(/C=C3\C(=O)NC(=O)C(C#N)=C3C)o2)c1	1.96%
CCN1CCN(Cc2cccc(Cl)c2)CC1	-1.92%
CCOC(=O)C1=C(N)OC2=C(C(=O)CCC2)C1c1ccc(F)cc1 (stereo not shown)	-0.771%
Cc1nn(CC(=O)N2CCC(N3CCCCC3)CC2)c(=O)c2cccn12	-2.94%
COC(=O)c1ccc(-c2ccncc2)s1	-2.39%
O=C(CN1CCOCC1)C12CC3CC(CC(C3)C1)C2	-6.2%
COc1ccc(C2C(C(=O)Nc3cccnc3)=C(C)Nc3ncnn32)cc1 (stereo not shown)	-18.8%
CCCS(=O)(=O)c1c(S(=O)(=O)CCC)c2cnccn2c1C(=O)c1ccc(C)cc1C	1.34%
Cc1ccc(-c2[nH]nc3nc(-c4ccc(O)c(O)c4)cc(C(=O)O)c23)cc1	-5.33%
CCOC(=O)c1sc(N2N=C(C)/C(=C\c3cc(C)n(-c4ccc5c(c4)OCO5)c3C)C2=O)nc1C	0.884%
COC(=O)C1=C(C)c2cc3c(cc2C1Cl)OCO3 (stereo not shown)	4.61%
CCOc1ccc(C(=O)C2=C(O)C(=O)N(CC3CCCO3)C2c2ccc(Cl)cc2)cc1 (stereo not shown)	-5.46%
COc1ccc(-c2cc(C)no2)cc1S(=O)(=O)N1CCN(C(=O)c2ccco2)CC1	3.41%
Cc1nnc2c(Sc3nc4ccccc4s3)nc3ccccc3n12	-1.68%
O/C(=C\C=N\c1cc(Cl)ccc1O)c1cccs1	1.35%
O=C(Nc1cccc(Cl)c1)c1cccs1	1.48%
CC1CN(C(=O)c2cccs2)C(C)CN1C(=O)c1cccs1 (stereo not shown)	-1.61%
O=C(/N=C1\SC2CS(=O)(=O)CC2N1c1ccc(Cl)cc1)c1ccccc1 (stereo not shown)	0.408%
CC(C)C[C@H](NC(=O)c1cccc(CN2CCN(C)CC2)c1)C(=O)NCC#N	-3.97%
CC(C)(C)NC(=O)c1cccc(NC(=O)CN2C(=O)c3ccccc3C2=O)c1	-1.36%
N#CC1(NC(=O)[C@H](Cc2cc(Cl)c(O)c(Cl)c2)NC(=O)c2ccc(Br)cc2)CC1	-1.41%

Structure (SMILES)	% Inhibition @ 10 uM
COc1cc(S(=O)(=O)n2nc(C)c(C(C)=O)c2C)ccc1F	-0.189%
N#Cc1ccc(Oc2ccc3ccccc3c2)cc1C#N	-4.96%
Cc1ccccc1CSc1ncc(Cl)c(C(=O)NCCc2ccc(S(N)(=O)=O)cc2)n1	0.758%
CCN(C(=O)CC(C)C)c1nc(-c2ccc(C)cc2)cs1	4.86%
CCCCCCOC(=O)c1ccccc1NC(=O)/C=C/C(=O)O	-8.75%
CCC1CCCCN1S(=O)(=O)c1ccc2nc(O)cc(C(=O)NCCc3ccc(C)cc3)c2c1 (stereo not shown)	0.387%
N=c1c2c3c(sc2ncn1CCO)CCCCC3	27.5%
COc1ccc(CNC(=O)OCc2nccnc2C(=O)Nc2ccc(Br)cn2)cc1	-1.3%
O=c1c2ccccc2nc(/C=C/c2cc(Br)ccc2O)n1CCO	11.4%
O=C1C(CCNc2ccccc2)C=NN1c1ccccc1 (stereo not shown)	1.7%
OCCNc1c2ccccc2nc2c(F)c(F)c(F)c(F)c12	2.46%
Cc1cc2c(c(=O)o1)C(c1ccoc1)C(C#N)=C(N)O2 (stereo not shown)	1.4%
Nc1cc(O)nc(N(Cc2ccccc2)Cc2ccccc2)n1	2.4%
COc1ccc(OC)c(CNS(=O)(=O)c2cc(-c3cc(C)no3)ccc2OC)c1	-1.34%
CCc1ccc(/C=C2\Oc3ccc(C(=O)OC)cc3C2=O)cc1	-1.37%
CCc1c(C#N)c(SCC(=O)Nc2cccc(C(C)=O)c2)nc2c1C(=O)CC(C)(C)C2	8.15%
CCOC(=O)NCCN1C(=O)C2C3C=CC(C3)C2C1=O (stereo not shown)	-2.98%
COCCn1c(SCC(=O)Nc2nnc(C)s2)nnc1-c1c[nH]c2ccccc12	-1.3%
CCOC(=O)c1[nH]c2c(c1C)C(=O)CC(c1ccc(OCC)cc1)C2 (stereo not shown)	2.57%
CCn1c(SCC(=O)NCc2ccc3c(c2)OCO3)nc2c(c1=O)SCC2	1.97%
CCCN1CCN(C(=O)C2CCCN(c3nc4ccc(OCC)cc4s3)C2)CC1 (stereo not shown)	3.4%
O=C(NCC1CCCO1)c1c(O)nnc(-c2ccccc2)c1-c1ccccc1 (stereo not shown)	-1.11%
Cc1ccc(NC(=O)c2ccccc2NC(=O)C2CCCCC2C(=O)O)cc1 (stereo not shown)	-0.95%
CC1(C)CC(=O)C2=C(C1)N(Cc1ccccc1)C(=O)C2(NC(=O)CCC1CCCCC1)C(F)(F)F (stereo not shown)	-1.52%
Cc1ccccc1C1NC(=O)c2c(sc3c2CCN(C)C3)N1 (stereo not shown)	-3.96%
